From the supplement of paper PMC4967469
The IC50 comes from the fitted curve, where viability falls to half of the control; a limit (>, <) means that the fit lies beyond the doses tested. AUC sums up the same curve from the lowest dose to the 256-fold higher top dose; the more sensitive the line, the further below 1. For some of these results: An inferred top dose is not printed in the source and was worked back from the curve model.

Legend:
Assay in all cases: Viability of human cancer cell lines after 72 h of drug (GDSC screen)
JW-7-52-1 = compound: CCC(=O)N1CCN(c2ccc(-n3c(=O)ccc4cnc5ccc(-c6cnc7ccccc7c6)cc5c43)cc2C(F)(F)F)CC1 [JW-7-52-1]; conditions: top dose 1.2 µM; top dose inferred
Experimental: (§1)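 Human cancer cell lines in 384-well plates, medium with 10% serum, drug for 72 h over a 256-fold dose range (nine 2-fold or five 4-fold steps up to the top dose). Adherent lines were fixed and stained with the nucleic acid dye Syto60, suspension lines read with resazurin; signal relative to control wells, capped at 0 and 100%. One two-parameter sigmoid per drug and line, fitted in a mixed model over all curves with the slope shared within a line.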

Z-LLNle-CHO = compound: CCCC[C@@H](C=O)NC(=O)[C@H](CC(C)C)NC(=O)[C@H](CC(C)C)NC(=O)OCc1ccccc1 [Z-LLNle-CHO]; conditions: top dose 2.56 µM; top dose inferred
Experimental: as §1

Tubastatin A = compound: CN1CCc2c(c3ccccc3n2Cc2ccc(C(=O)NO)cc2)C1 [Tubastatin A]; conditions: top dose 20 µM
Experimental: as §1

Rapamycin = compound: CO[C@H]1C[C@@H]2CC[C@@H](C)[C@@](O)(O2)C(=O)C(=O)N2CCCC[C@H]2C(=O)O[C@H]([C@H](C)C[C@@H]2CC[C@@H](O)[C@H](OC)C2)CC(=O)[C@H](C)/C=C(\C)[C@@H](O)[C@@H](OC)C(=O)[C@H](C)C[C@H](C)/C=C/C=C/C=C/1C [Rapamycin]; conditions: top dose 0.1 µM; top dose inferred
Experimental: as §1

XL-880 = compound: COc1cc2c(Oc3ccc(NC(=O)C4(C(=O)Nc5ccc(F)cc5)CC4)cc3F)ccnc2cc1OCCCN1CCOCC1 [XL-880]; conditions: top dose 5.12 µM; top dose inferred
Experimental: as §1

IPA-3 = compound: Oc1ccc2ccccc2c1SSc1c(O)ccc2ccccc12 [IPA-3]; conditions: top dose 32 µM; top dose inferred
Experimental: as §1

CI-1040 = compound: O=C(NOCC1CC1)c1ccc(F)c(F)c1Nc1ccc(I)cc1Cl [CI-1040]; conditions: top dose 10 µM; top dose inferred
Experimental: as §1

Temozolomide = compound: Cn1nnc2c(C(N)=O)ncn2c1=O [Temozolomide]; conditions: top dose 30 µM
Experimental: as §1

ZG-10 = compound: CN(C)C/C=C/C(=O)Nc1ccc(C(=O)Nc2cccc(Nc3nccc(-c4cccnc4)n3)c2)cc1 [ZG-10]; conditions: top dose 10 µM; top dose inferred
Experimental: as §1

Cell Line	AUC (JW-7-52-1)	IC50 (JW-7-52-1) [nM]	AUC (Z-LLNle-CHO)	IC50 (Z-LLNle-CHO) [nM]	AUC (Tubastatin A)	IC50 (Tubastatin A) [nM]	AUC (Rapamycin)	IC50 (Rapamycin) [nM]	AUC (XL-880)	IC50 (XL-880) [nM]	AUC (IPA-3)	IC50 (IPA-3) [nM]	AUC (CI-1040)	IC50 (CI-1040) [nM]	AUC (Temozolomide)	IC50 (Temozolomide) [nM]	AUC (ZG-10)	IC50 (ZG-10) [nM]
SUP-B15 (lymphoblastic leukaemia, suspension)	0.379	35.3	0.683	506	0.779	7790	0.378	2.93	0.349	124	0.804	15200	0.653	1630	–	–	–	–
MHH-NB-11 (neuroblastoma, adherent)	0.92	> 1200	0.9	> 2560	0.853	18000	0.985	> 100	0.631	765	0.984	> 32000	0.754	3670	–	–	–	–
RL95-2 (endometrium, adherent)	0.193	9.21	0.788	1110	0.981	> 20000	0.142	0.482	0.505	329	–	–	0.507	654	0.982	> 30000	–	–
BC-3 (B-cell lymphoma, suspension)	0.553	103	0.879	2150	0.888	18300	0.796	41.3	0.675	926	0.976	> 32000	–	–	–	–	–	–
NCI-H2196 (small cell lung carcinoma, adherent)	0.758	438	0.947	> 2560	0.961	> 20000	0.909	> 100	0.607	639	0.961	> 32000	–	–	–	–	–	–
KASUMI-1 (acute myeloid leukaemia, suspension)	0.895	> 1200	0.915	> 2560	–	–	0.965	> 100	–	–	–	–	0.689	2130	0.98	> 30000	–	–
HCC1599 (breast, suspension)	0.454	55.1	0.665	494	0.872	> 20000	0.734	32.5	0.696	1240	0.912	> 32000	–	–	–	–	–	–
NCI-H128 (small cell lung carcinoma, suspension)	0.918	> 1200	0.954	> 2560	–	–	0.941	> 100	–	–	–	–	–	–	–	–	–	–
NOS-1 (osteosarcoma, adherent)	–	–	0.778	1290	0.933	> 20000	0.132	< 0.391	0.262	56.3	0.695	8060	0.846	9940	0.977	> 30000	0.773	4810
KG-1 (acute myeloid leukaemia, suspension)	0.762	385	0.944	> 2560	0.916	> 20000	0.943	> 100	0.444	230	0.852	20700	–	–	0.988	> 30000	–	–
LC-2-ad (lung adenocarcinoma, adherent)	0.256	14.7	0.762	941	0.853	16200	0.172	0.613	0.401	170	0.81	17300	–	–	0.983	> 30000	–	–
EW-12 (Ewing sarcoma, suspension)	0.976	> 1200	0.975	> 2560	–	–	0.717	42.2	–	–	–	–	–	–	–	–	–	–
TALL-1 (T-cell lymphoblastic leukaemia, suspension)	0.673	222	0.781	1010	0.984	> 20000	0.965	> 100	0.799	2320	0.91	> 32000	–	–	–	–	–	–
NCI-H748 (small cell lung carcinoma, suspension)	0.602	155	0.804	1730	0.914	> 20000	0.915	> 100	0.827	4350	0.929	> 32000	–	–	–	–	–	–
SIG-M5 (acute myeloid leukaemia, suspension)	0.541	94.1	0.802	912	0.785	6400	0.687	18	0.499	317	0.508	–	–	–	–	–	–	–
NCI-H1963 (small cell lung carcinoma, suspension)	0.808	527	0.862	1740	0.953	> 20000	0.924	> 100	0.841	2920	0.848	19400	0.953	> 10000	–	–	–	–
KP-N-RT-BM-1 (neuroblastoma, semi-adherent)	0.842	> 1200	0.883	> 2560	–	–	0.898	> 100	–	–	–	–	–	–	–	–	–	–
ETK-1 (biliary tract, adherent)	–	–	0.817	1680	0.913	> 20000	0.102	< 0.391	0.617	704	0.873	> 32000	0.874	> 10000	0.971	> 30000	0.774	4470
NCI-H510A (small cell lung carcinoma, semi-adherent)	0.844	758	0.875	2160	0.803	8940	0.939	> 100	0.665	880	0.96	> 32000	0.883	9220	–	–	–	–
